Measured values reported in paper PMC10668032.
Some of the results follow. At the low end of the ranking the order means little.

Target: SIX1 homeodomain (reference allele) (UniProt Q15475)
Test: universal protein binding microarray
Conditions: Universal all-10-mer PBM (8x60K, AMADID 030236), 300 nM GST-tagged protein, Alexa Fluor 488 anti-GST; buffer, salt, pH and temperature not stated; high values mean tight binding; most listed sequences are background and not binding sites; double strand, one strand shown

| Sequence | binding signal |
| --- | --- |
| CTCTCAAG | -0.0422 E-score |
| AAACTCAA | -0.186 E-score |
| CAGCTAGC | -0.0759 E-score |
| CACATACA | 0.0196 E-score |
| AGGAGCCT | -0.152 E-score |
| CCCAAACC | 0.0007 E-score |
| ACAAACTC | -0.234 E-score |
| ACTGATTA | -0.0201 E-score |
| ATGATGTA | 0.0132 E-score |
| CTACGGCC | -0.0906 E-score |
| TCTGGGCA | -0.109 E-score |
| GTTAAATA | -0.179 E-score |
| GGGTGTAA | 0.334 E-score |
| ACGCGCTA | -0.0409 E-score |
| ACTTGCGC | 0.036 E-score |
| CGATACCC | 0.492 E-score |
| CGACCCAC | -0.0513 E-score |
| AAGGGGCT | 0.0934 E-score |
| GTCCTCTA | -0.261 E-score |
| GCAAGGGC | -0.273 E-score |
| ATGAAATA | -0.15 E-score |
| AGGAGTTC | -0.212 E-score |

| Sequence | binding signal |
| --- | --- |
| CTGCGTGA | -0.0341 E-score |
| ACCGTCCA | -0.0239 E-score |
| ACGTTGTA | -0.219 E-score |
| GACCGGGA | 0.0448 E-score |
| GGTTCTGA | -0.144 E-score |
| GGTTAATA | 0.169 E-score |
| ATACCCGG | 0.407 E-score |
| AGATGAAC | -0.0911 E-score |
| GGATATTA | 0.355 E-score |
| GAAATACA | -0.0828 E-score |
| AGGCTGCG | -0.161 E-score |
| GAGCGACC | -0.317 E-score |
| AACCTGAG | -0.103 E-score |
| CGCGGCGA | 0.0491 E-score |
| GAACAGTC | -0.0176 E-score |
| CTCTAAAG | -0.166 E-score |
| ACACTCAC | 0.0868 E-score |
| GCGCCACC | -0.242 E-score |
| AAGAGTAG | -0.055 E-score |
| ACTCGCTA | 0.05 E-score |
| AAGTCGGA | 0.0614 E-score |
| ATGCGGGC | 0.0159 E-score |

| Sequence | binding signal |
| --- | --- |
| GTAATTAC | -0.0546 E-score |
| ATCTAGGC | 0.0735 E-score |
| GATACCCC | 0.496 E-score |
| ATTGCAGA | -0.0738 E-score |
| CTCGCGAG | 0.0426 E-score |
| GAATGAGC | -0.0707 E-score |
| CTTCATCA | -0.149 E-score |
| GCGTCCGA | -0.0112 E-score |
| AATTGGCA | -0.105 E-score |
| GACGTCCA | -0.218 E-score |
| GATGATGA | 0.189 E-score |
| TAAATTCA | -0.164 E-score |
| GCGTCTTA | -0.0701 E-score |
| AGCGGCCG | -0.272 E-score |
| CGATATCA | 0.444 E-score |
| AGACGCAA | -0.109 E-score |
| CATGCAAG | 0.0687 E-score |
| CCATCCCG | 0.104 E-score |
| CATGCATA | 0.018 E-score |
| GCGCTCTA | -0.248 E-score |
| GAAAGCAA | -0.0624 E-score |
| CTTCTCAA | 0.0658 E-score |

| Sequence | binding signal |
| --- | --- |
| AGGTCGTC | -0.154 E-score |
| AAGTCTGG | -0.313 E-score |
| CCTTTTAA | -0.103 E-score |
| CCTGCTGC | -0.232 E-score |
| ATTCAGTG | -0.0117 E-score |
| CGGTCAAG | -0.0835 E-score |
| AAGCACAT | -0.101 E-score |
| TGTACTAA | -0.174 E-score |
| ATCATAAG | 0.286 E-score |
| CGCTACTC | 0.0352 E-score |
| CCTATCAG | 0.326 E-score |
| CAGATCCA | 0.329 E-score |
| GAGATGCA | 0.00553 E-score |
| TAGCGCAA | -0.000455 E-score |
| CGCGAAAC | -0.184 E-score |
| CCCCATTC | -0.152 E-score |
| AAACCGGA | 0.0389 E-score |
| AAATAGAG | -0.17 E-score |
| ATGTCTTG | -0.124 E-score |
| ACTGACTC | -0.184 E-score |
| ATCCTTCA | 0.205 E-score |
| GGATAACC | 0.297 E-score |

| Sequence | binding signal |
| --- | --- |
| ACTATCCT | 0.318 E-score |
| AATCAGCT | -0.0149 E-score |
| CCCCGCGG | 0.0847 E-score |
| ACAGTCAT | -0.0242 E-score |
| CTCGTTGC | -0.0403 E-score |
| AGAAGTGG | -0.0191 E-score |
| AAGACAAC | -0.161 E-score |
| CATACGTC | -0.0661 E-score |
| TAGAGTGA | 0.0353 E-score |
| CAGAGTCC | -0.102 E-score |
| ACCGGATA | 0.364 E-score |
| ATCCGGAG | 0.299 E-score |
| ACCTTAGG | -0.0982 E-score |
| CACGGCCC | -0.159 E-score |
| ACGACTGA | -0.136 E-score |
| AGCAGGTC | -0.0922 E-score |
| AAGCGCTG | -0.267 E-score |
| ATTAATAC | 0.352 E-score |
| CTGGATCA | 0.326 E-score |
| TGGTCCAA | -0.19 E-score |
| GTCCTTTA | -0.251 E-score |
| GTCCGAAA | -0.235 E-score |
